Results as given in the supplement of paper PMC3334620.
Whole data set: some 33,000 sequences, median “E-score (-0.5 to 0.5)” near -0.021, cut for the highest 2% near 0.32. The list shows a part of the results.

Molecular target: T1, Zap1 (UniProt P47043)
T1 sequence: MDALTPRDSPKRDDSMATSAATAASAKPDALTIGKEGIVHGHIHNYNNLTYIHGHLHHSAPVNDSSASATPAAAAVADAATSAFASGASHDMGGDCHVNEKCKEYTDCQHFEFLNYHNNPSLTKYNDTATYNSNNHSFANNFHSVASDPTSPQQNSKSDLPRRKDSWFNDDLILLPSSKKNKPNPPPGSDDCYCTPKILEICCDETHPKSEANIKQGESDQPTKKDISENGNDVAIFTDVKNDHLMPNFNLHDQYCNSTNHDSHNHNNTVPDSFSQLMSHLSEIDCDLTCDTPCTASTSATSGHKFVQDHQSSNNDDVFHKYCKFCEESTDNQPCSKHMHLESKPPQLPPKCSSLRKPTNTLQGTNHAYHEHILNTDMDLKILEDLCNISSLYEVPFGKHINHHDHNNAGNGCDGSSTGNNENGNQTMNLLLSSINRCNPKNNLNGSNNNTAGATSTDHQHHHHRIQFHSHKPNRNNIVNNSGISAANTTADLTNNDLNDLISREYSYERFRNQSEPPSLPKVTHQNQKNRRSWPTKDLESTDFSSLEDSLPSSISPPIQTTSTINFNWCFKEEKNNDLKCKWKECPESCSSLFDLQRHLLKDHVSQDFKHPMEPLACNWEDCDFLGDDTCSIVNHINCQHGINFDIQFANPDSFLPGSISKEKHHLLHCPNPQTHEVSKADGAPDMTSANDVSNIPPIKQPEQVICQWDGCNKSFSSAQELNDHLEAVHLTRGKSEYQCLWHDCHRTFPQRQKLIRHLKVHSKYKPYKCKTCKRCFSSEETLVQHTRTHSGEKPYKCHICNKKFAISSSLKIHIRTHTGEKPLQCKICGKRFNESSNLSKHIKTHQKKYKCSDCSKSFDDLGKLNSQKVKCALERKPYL
Test: PBM E-score (8-mer binding enrichment) (E-score (-0.5 to 0.5)); higher = stronger / more preferred TF binding; most listed sequences are background and not binding sites
Details: protein concentration: 200 nM; construct: GST-full length
How it was run: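 Each ungapped eight-base word and its reverse complement, pooled, received an E-score from the Universal PBM Analysis Suite. Underlying scans, normalised with masliner, recorded fluorescent anti-GST bound to GST-tagged yeast transcription factors. These were applied at about 100-200 nM to universal all-10-mer Agilent arrays double-stranded by primer extension.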

First: ACGGATCA
Second: AAATTCTA
The “PBM E-score” value of the first is lower: -0.0433 for the first, -0.0171 for the second.

First: AGTCAATA
Second: GCTTTGCC
The “PBM E-score” value of the first is higher: -0.0386 for the first, -0.379 for the second.

Going from AGCGGCGA to GCTTCCAA, the “PBM E-score” value rises from -0.156 to -0.0531.

Going from ACGTATAG to AACTTACC, the “PBM E-score” value rises from -0.182 to 0.0142.

Compared with GACTAAAA, CTAACAAC is higher in “PBM E-score” value: 0.168 for the first, 0.226 for the second.

Going from GTTTCCAA to GGGTCAAA, the “PBM E-score” value rises from -0.00834 to 0.263.

First: AGTCCCTA
Second: ATAGGATA
The “PBM E-score” value of the first is lower: -0.034 for the first, 0.0277 for the second.

First: ATGCGCAG
Second: ACGGCGGG
The “PBM E-score” value of the first is lower: -0.27 for the first, 0.0714 for the second.

First: CGGGGCGC
Second: GGAGCAAA
The “PBM E-score” value of the first is higher: -0.115 for the first, -0.275 for the second.

First: CAAGCCTC
Second: TTCAGAAA
The “PBM E-score” value of the first is lower: -0.222 for the first, 0.118 for the second.

Going from ATGTAATG to AACAGGCC, the “PBM E-score” value falls from 0.202 to -0.24.

Compared with CCAAACCC, ACCTCAAT is higher in “PBM E-score” value: 0.162 for the first, 0.237 for the second.

First: AAGTGATA
Second: AAGTTTCG
The “PBM E-score” value of the first is lower: -0.136 for the first, 0.0696 for the second.

Compared with TAATTGGA, AGTACTTG is lower in “PBM E-score” value: 0.164 for the first, -0.0331 for the second.

Compared with CGATCAGA, CGAATATA is higher in “PBM E-score” value: -0.196 for the first, 0.0846 for the second.

First: CACGGAGA
Second: AACATGTT
The “PBM E-score” value of the first is lower: -0.188 for the first, 0.00555 for the second.

Going from CTCCAGGA to GCCGATAA, the “PBM E-score” value rises from -0.213 to -0.0954.

Going from CGGGCACA to CGACCGCC, the “PBM E-score” value falls from -0.161 to -0.18.

Going from TAAAATCA to GCAGGGGC, the “PBM E-score” value falls from 0.0965 to -0.206.

Going from AGAAACCG to GTCTGATA, the “PBM E-score” value falls from 0.0611 to -0.117.

Going from ATTGCCGG to CAGCGCAC, the “PBM E-score” value falls from -0.111 to -0.278.

First: AGGCTCGG
Second: TATTGGAA
The “PBM E-score” value of the first is lower: -0.383 for the first, 0.0272 for the second.

Going from ACTTTACA to CGCTCTAC, the “PBM E-score” value falls from 0.111 to -0.0893.

Compared with CGGATAAA, CCCGACTA is lower in “PBM E-score” value: 0.147 for the first, -0.0609 for the second.

Going from AAACGCAT to TATGATAA, the “PBM E-score” value rises from -0.0553 to 0.233.

Going from TCGGGAAA to GTCTAATA, the “PBM E-score” value rises from -0.0382 to 0.0115.

Compared with ATAATCAA, CCATCCGA is lower in “PBM E-score” value: 0.0789 for the first, 0.0101 for the second.

Going from ATTTGACA to CGGCGGAG, the “PBM E-score” value falls from 0.0851 to -0.226.

Going from GCAATTTA to AGAGTGCC, the “PBM E-score” value falls from 0.134 to -0.117.

First: CTAAGGGC
Second: GCACTGGA
The “PBM E-score” value of the first is higher: -0.0125 for the first, -0.136 for the second.

Compared with GATCGCTA, AAAGTAGA is lower in “PBM E-score” value: 0.0298 for the first, -0.0244 for the second.

First: CCTGCTCG
Second: CTCGACGA
The “PBM E-score” value of the first is higher: -0.0742 for the first, -0.13 for the second.

Compared with GCCAATCC, CTCAGGGA is higher in “PBM E-score” value: -0.142 for the first, 0.016 for the second.

First: ATGCGGCA
Second: ACCGCGGC
The “PBM E-score” value of the first is lower: -0.0342 for the first, 0.248 for the second.

Compared with ACTACCGC, CAACCTGC is lower in “PBM E-score” value: 0.172 for the first, 0.0864 for the second.

Going from AAGGCTCG to CCCTTCGG, the “PBM E-score” value rises from -0.248 to 0.205.

First: AGACTCCC
Second: TGCCTCAA
The “PBM E-score” value of the first is lower: -0.195 for the first, -0.144 for the second.

First: CACTCCAC
Second: AGACTCCT
The “PBM E-score” value of the first is higher: -0.0374 for the first, -0.112 for the second.

Going from ACGCTTCG to CGCCGGCC, the “PBM E-score” value rises from -0.164 to -0.122.

Compared with ATCTAGGC, TCACGAAA is higher in “PBM E-score” value: -0.197 for the first, 0.0976 for the second.

Compared with CGCTTATA, ACTTTCTG is lower in “PBM E-score” value: 0.0122 for the first, 0.0107 for the second.

Going from CGACGAAC to CGTCTTTC, the “PBM E-score” value falls from -0.0937 to -0.257.

First: AAGCAAAG
Second: AGATGCCC
The “PBM E-score” value of the first is higher: -0.148 for the first, -0.313 for the second.
